Structures are written as SMILES. For part of its entries the source gives two or more results. The other results are left out here. There may be further records. Results that share an entry are repeats in other runs, samples, wells, individuals or studies. Brackets with × give the number of equal values in this list. Marks such as [2022-09] give the month of the run.

For this assay, the system named is MPNST complex spheroid with HUVEC/MSC, growth, % test/control. As to the kind of experiment: Anticancer human tumor MPNST cell line growth inhibition [Asc].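 On all read-outs here: compounds left on spheroids for seven days before reading.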 Conditions: for viability, T/C: stronger effect = lower value; for IC50: compound alone. How it is done: Multicellular complex tumor spheroid response to apoptosis pathway targeting inhibitors Alrizomadlin, Pelcitoclax, and Dasminapant in combination with a variety of drugs and investigational agents in selected tumor cell lines
The MDM2 inhibitor alrizomadlin, the Bcl-2/Bcl-xL inhibitor pelcitoclax, and the IAPs inhibitor dasminapant were evaluated both individually and in combination with standard of care and investigational anticancer small molecules within a complex spheroid model of solid tumors. . Complex spheroids include a stromal component modeled by human endothelial cells (HUVEC) and fibroblasts modeled by human mesenchymal stem cells (MSCs). The concentration ranges selected for each drug and investigational agent were based upon clinically achievable concentrations if the clinical Cmax of the agent was known.
Compounds. The drugs and investigational agents: alrizomadlin (APG-115; NSC831270), pelcitoclax (APG-1252; NSC835773), dasminapant (APG-1387;NSC834197), TAK-243 (NSC785004), copanlisib (NSC809693), olaparib (NSC753686), talazoparib (NSC767125), cobimetinib (NSC 768068), eltanexor (KPT-8602, NSC 794443), abemaciclib (NSC 768073), sotorasib (NSC818433), adagrasib (NSC 831453), MRTX-1133 (NSC 836407), Iadademestat (ORY1001, NSC 806812), and RMC-4630 (NSC839698), were obtained from the NCI Developmental Therapeutics Program Chemical Repository. The FDA-approved anticancer drug set is available from the Developmental Therapeutics Program at https://dtp.cancer.gov/organization/dscb/obtaining/available plates.htm. […] The stock solutions were prepared in dimethyl sulfoxide (DMSO, Sigma-Aldrich, St. Louis, MO, cat. D2650) at 800-fold the tested concentration and stored at -70 degrees C prior to their use. All drugs and investigational agents were tested over a range starting from a high concentration at or near the clinical Cmax and decreasing in half-log increments. If the clinical Cmax for an agent had not been determined, the highest concentration tested was 10 microM.
The patient-derived cancer (PDC) cell lines include five colon adenocarcinomas: 186277-243-T-J2-PDC, 616215-338-R-J1-PDC, 439559-082-T-J2-PDC, 463943-066-T-J2-PDC, and 519858-162-T-J1-PDC; three pancreatic carcinomas: 323965-272-R-J2-PDC, 521955-158-R6-J3-PDC, and 521955-158-R2-J5-PDC; two uterine sarcomas: 327498-152-R-J2-PDC and 993429-296-R-J1-PDC; two rhabdomyosarcomas: 755483-174-R-J1-PDC and 772245-204-R-J1-PDC; two soft tissue sarcomas: 126254-015-R-J1-PDC and 494315-158-R-J1-PDC; two malignant fibrous histiocytomas: 317291-083-R-J1-PDC and 596521-263-R-J1-PDC; two breast carcinomas: 171881-019-R-J1-PDC and 885512-296-R-J2-PDC; and one ovarian carcinoma: 6556581-035-R-J-PDC were obtained from the NCI PDMR, (https://pdmr.cancer.gov). The established cell lines HSSY-2 synovial sarcoma (RRID:CVCL 8719), SYO-1 synovial sarcoma (RRID:CVCL_7146), MPNST malignant peripheral neural sheath tumor were obtained from the Sloan Kettering Institute. The following established cell lines were purchased from the American Type Culture Collection (ATCC, Manassas, VA), Sor the received from the NCI repository:, PANC-1 pancreatic carcinoma (CRL-1469, RRID:CVCL_0480), OVCAR-5 ovarian carcinoma (RRID:CVCL_1628), OVCAR-8 ovarian carcinoma (RRID:CVCL_1629), , MCF-7 breast carcinoma (CRL-12584, RRID:CVCL_0031), MDA-MB-231 breast carcinoma (CRL-12532, RRID:CVCL_0062), NCI-H1876 small cell lung carcinoma (CRL-5902, RRID:CVCL_1503), NCI-H510A small cell lung carcinoma (HTB-184, RRID:CVCL_1565), NCI-H1417 (CRL-5869, RRID:CVCL_1469), and NCI-H196 small cell lung carcinoma (CRL-5823, RRID:CVCL_1509). Dr. Peter Houghton (Greehey Children's Cancer Research Institute, University of Texas Health Science Center, San Antonio, TX) provided Rh-18 rhabdomyosarcoma (RRID:CVCL_1659). Pooled donor human umbilical vein endothelial cells (HUVEC, Lonza, cat. CC-2519) and human mesenchymal stem cells (hMSC, Lonza, cat. PT-2501) were purchased from Lonza (Walkersville, MD).
Cell Culture. […]

For the compound `CCN1C(C(=O)NC23CCC(C(=O)O)(CC2)CC3)C(c2cccc(Cl)c2F)C2(C(=O)Nc3cc(Cl)ccc32)C12CCCCC2` (centres undefined), the viability, T/C (compound alone 0.03 µM) is 92.7, 81, 87.1, 98, 56.3, 63.5, 79.8, 68.1, 74.4, 51.9, 70.3, 67, 76.6, 96.6% [2022-10] and 80.6% [2022-11]; the viability, T/C (compound alone 0.0949 µM) is 124, 111, 103, 126, 78.9, 91.3, 86.2, 107, 89.7, 71.5, 83.7, 85.3, 92.5, 97.6% [2022-10] and 92.6% [2022-11]; the viability, T/C (compound alone 0.3 µM) was 98.3, 110, 89.2, 129, 83.5, 101 (2×), 89.7, 102, 81.1, 96.5, 86.7, 76.5, 105% [2022-10] and 80.5% [2022-11]; the viability, T/C (compound alone 0.949 µM) is 104 (2×), 105, 86.8, 113, 87.2, 87.4, 94.3, 86, 80.4, 90.2, 74.6, 88.5, 83.3% [2022-10] and 59.4% [2022-11]; the viability, T/C (compound alone 3 µM) is 105, 92.3, 70, 95.7, 60.8, 69.3, 70.6, 74.7, 73 (2×), 76.6, 69.4, 64.9, 68.4% [2022-10] and 42.7% [2022-11].
On to `C=C(F)C(=O)N1CCN(c2nc(OCC3CCCN3C)nc3c2CCN(c2cccc4cccc(Cl)c24)C3)CC1CC#N` (centres undefined), for which the viability, T/C (compound alone 10 µM) was 75.3%, 61% [2022-10] and 1.96% [2022-11].
Consider `NC(=O)C(=Cn1cnc(-c2cc(C(F)(F)F)cc(C(F)(F)F)c2)n1)c1cncnc1`, for which the IC50 is 24.9 nM, > 300 nM [2022-10] and < 0.949 nM [2022-11].
For `CNC(C)C(=O)NC1CN(S(=O)(=O)c2cccc(S(=O)(=O)N3CCC4CCC(C(=O)NC(c5ccccc5)c5ccccc5)N4C(=O)C(NC(=O)C(C)NC)C3)c2)CCC2CCC(C(=O)NC(c3ccccc3)c3ccccc3)N2C1=O` (centres undefined), the viability, T/C runs as follows: (compound alone 0.00316 µM) 93.6%, 120% [2022-10] and 12.5, 58.4, 49.3, 86.2, 76.3, 74.5, 62.8% [2022-11]; (compound alone 0.01 µM) 83.9%, 137% [2022-10] and 47.7, 82, 67, 84.3, 99.4, 81.1, 67.8% [2022-11]; (compound alone 0.0316 µM) 86%, 111% [2022-10] and 65.2, 112, 78, 83.2, 94.8, 74.1, 85.5% [2022-11]; (compound alone 0.1 µM) 78.3%, 104% [2022-10] and 81.3, 98.2, 87, 92.7, 109, 61.5, 93% [2022-11]; (compound alone 0.316 µM) 86.5%, 105% [2022-10] and 88.6, 86.1, 79.6, 74.4, 127, 78.1, 104% [2022-11]; (compound alone 1 µM) 121%, 103% [2022-10] and 73.3, 90, 93.3, 81.1, 101, 73.5, 81.4% [2022-11]. The IC50 (run of 11/15/2022) was < 3.16 nM and > 1 µM.
As for `Cc1c(S(C)(=O)=O)c(-c2cc(F)cc(N3CCN(c4ccc(NS(=O)(=O)c5ccc(NC(CCN6CCC(C(=O)OCCCP(=O)(O)O)CC6)CSc6ccccc6)c(S(=O)(=O)C(F)(F)F)c5)cc4)CC3)c2)c(-c2ccc(Cl)cc2)n1C(C)C` (centres undefined), the viability, T/C (compound alone 0.1 µM) is given as 70.1, 56.5, 58.2, 79.8, 65.2, 61.8, 64.3, 66.6, 54, 59, 58.3, 82.2, 72.3, 104%; the viability, T/C (compound alone 0.316 µM) is reported as 64.5, 90, 79, 75, 108, 57.9, 64.6, 68.3, 87.8, 70.8, 73.3, 131, 91.9, 135%; the viability, T/C (compound alone 1 µM) is 104 (2×), 79.7, 88.2, 90.2, 85, 79.2, 93.9, 78.2, 96.6, 77, 130, 91.8, 108%; the viability, T/C (compound alone 3.16 µM) was 86.2, 93.7, 69.3, 74.8, 91.1, 61.9, 69.4, 71.1, 60.7, 94.6, 74.1, 103 (2×), 88.5%; the viability, T/C (compound alone 10 µM) is 68.2, 67.5, 72, 61.9, 92.5, 70.4, 71.9, 78.5, 74.5, 68.4, 71, 154, 99.9, 124%.

(Values after PubChem BioAssay AID1963442 (Molecular Pharmacology Branch, DTP, NCI, 2024).)
